Test results reported in PubChem BioAssay AID1030 (National Center for Advancing Translational Sciences (NCATS), 2008).
“And” between values parts separate entries of the source, which are not always exact repeats. Identical values can stand only once. The whole screen tested about 220,000 compounds, of which about 16,000 (7.3%) were called active. The shares of active, inactive and inconclusive entries below differ from those in the screen. Calls come from the whole dose curve; as a rule, active = well fitted inhibition curve with a large enough effect (not every such curve was filed as active); inconclusive = small, poorly fitted or top-dose-only effect, or another doubt; inactive = no such curve, though single readings can be large or run the other way. Potencies of inconclusive entries are doubtful fits and often do not repeat.
Potency is the fitted concentration of half-maximal effect; tags give direction and shape of the fitted curve.
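Throughout, for activity, negative = inhibition: plate controls were no enzyme wells and a reference inhibitor.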

The compounds below were run against Aldehyde dehydrogenase 1A1 (Homo sapiens) (UniProt P00352) (assay: qHTS Assay for Inhibitors of Aldehyde Dehydrogenase 1 (ALDH1A1)). Conditions: Purified ALDH1A1, NADH fluorescence, propionaldehyde substrate; series mostly up to 75.3 µM; activity, negative = inhibition: at the top concentration.
Sequence of UniProt P00352 (P00352 whole entry, looked up): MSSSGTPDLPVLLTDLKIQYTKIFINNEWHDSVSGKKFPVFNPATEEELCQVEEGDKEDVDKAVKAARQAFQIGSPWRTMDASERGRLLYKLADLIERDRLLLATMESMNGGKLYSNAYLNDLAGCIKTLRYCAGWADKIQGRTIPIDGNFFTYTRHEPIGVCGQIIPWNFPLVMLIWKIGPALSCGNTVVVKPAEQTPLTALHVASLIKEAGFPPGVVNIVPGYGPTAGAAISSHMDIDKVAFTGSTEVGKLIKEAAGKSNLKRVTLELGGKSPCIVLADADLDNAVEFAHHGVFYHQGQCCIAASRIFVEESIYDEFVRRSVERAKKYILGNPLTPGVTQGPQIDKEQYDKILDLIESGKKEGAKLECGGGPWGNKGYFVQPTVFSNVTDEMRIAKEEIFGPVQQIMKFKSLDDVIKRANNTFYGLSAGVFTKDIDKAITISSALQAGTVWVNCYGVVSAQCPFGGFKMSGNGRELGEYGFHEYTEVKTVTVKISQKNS
`COc1ccc(CN(Cc2nc3ccccc3c(=O)[nH]2)C(=O)NC2CCCCC2)cc1` was tested, and the Potency was inconclusive: 22.4 µM [inhibitor, partial curve].
In the case of `CN(C)c1nc2ccc(OCCN3CCCCC3)cc2s1`, the “activity, negative = inhibition” value is reported as inactive: 3.59%.
For `Cc1c(C(=O)NC2CCCCC2)oc2c1C(=O)CC(C)(C)C2`, the Potency was inconclusive: 17.8 µM [inhibitor, partial curve].
For `Cc1cc(C)c2c(=O)n(-c3ccccc3)[nH]c2n1`, the Potency was inconclusive: 28.2 µM [inhibitor, single point].
`Cc1ccc(C)c2sc(NC(=O)c3ccc(N4CCCCC4)c([N+](=O)[O-])c3)nc12` was tested, and the “activity, negative = inhibition” value was inactive: -0.64%.
In the case of `CC(C)(CNc1ccc([N+](=O)[O-])cc1C#N)N1CCOCC1`, the Potency is reported as active: 2.24 µM.
`Cc1ccc(NC(=S)Nc2cccc3cnccc23)cc1` was tested, and the Potency was active: 12.6 µM.
In the case of `O=C(CN1C(=O)CSc2ccccc21)Nc1ccc2c(c1)OCCO2`, the “activity, negative = inhibition” value is reported as inactive: 8.25%.
With `Cc1noc(C)c1-c1nc(CSc2ccccc2)no1` the Potency was inconclusive: 22.4 µM [inhibitor, single point].
In the case of `CCOC(=O)CSC1=N/C(=C\c2cccnc2)C(=O)N1c1ccc(OC)cc1`, the Potency is reported as inconclusive: 25.1 µM [inhibitor, partial curve].
In the case of `CCOc1ccccc1NC(=O)CN(c1cc(C)cc(C)c1)S(=O)(=O)c1c(C)noc1C`, the Potency is reported as inconclusive: 28.2 µM [inhibitor, single point].
With `CCN1CCN(CC(=O)Nc2nc3ccc(OC)cc3s2)CC1` the Potency was inconclusive: 20 µM [inhibitor, partial curve].
In the case of `COc1ccc(N/N=C(/C(N)=O)C2=NC(C)(C)Cc3ccccc32)cc1`, the “activity, negative = inhibition” value is reported as inactive: -15.6%.
For `CC1CCCN(c2ccc(C(=O)NCc3ccco3)cc2[N+](=O)[O-])C1` (stereo unspecified), the Potency was inconclusive: 28.2 µM [inhibitor, partial curve].
In the case of `CCN/N=C(\Cc1nc2ccccc2[nH]1)c1ccccc1`, the Potency is reported as inconclusive: 15.8 µM [inhibitor, partial curve].
In the case of `CC(C)c1nc(SCC(=O)Nc2ccc3c(c2)OCO3)n[nH]1`, the Potency is reported as inconclusive: 39.8 µM [inhibitor, single point].
With `CCC(=O)Nc1ccc2c(c1)OCCO2` the “activity, negative = inhibition” value was inactive: 4.82%.
With `COc1ccc(CNc2cc(NCCCO)c([N+](=O)[O-])c3nonc23)cc1` the Potency was active: 10 µM.
`COc1ccc(N(CC(=O)N2CCc3ccccc3C2)S(=O)(=O)c2c(C)nn(C)c2C)cc1` was tested, and the Potency was inconclusive: 22.4 µM [inhibitor, single point].
With `COc1ccc(NC(=O)N2CCCC(CCC(=O)N(C)CCc3ccccn3)C2)cc1` (stereo unspecified) the Potency was inconclusive: 7.08 µM [inhibitor, single point].
In the case of `OCCC1CN(Cc2ccc(Oc3ncccn3)cc2)CCN1C1CCCC1` (stereo unspecified), the “activity, negative = inhibition” value is reported as inactive: 6.9%.
In the case of `O=C(c1ccc(F)cc1)C(CN1CCOCC1)c1ccccc1` (stereo unspecified), the Potency is reported as inconclusive: 25.1 µM [inhibitor, single point].
With `C=CC(=O)OCCOCCOCCOCCOC(=O)C=C` the Potency was inconclusive: 31.6 µM [inhibitor, single point] and inconclusive: 39.8 µM [inhibitor, single point].
`COCCNC(=O)COC(=O)c1cc(-c2ccc(OC)cc2)nc2ccccc12` was tested, and the Potency was inconclusive: 39.8 µM [inhibitor, single point].
For `CCOc1ccc(CN(CCC#N)C(=S)NC(=O)c2ccccc2)cc1`, the Potency was inconclusive: 39.8 µM [inhibitor, single point].
With `CNC(=S)N(CCc1c(C)[nH]c2ccc(Cl)cc12)Cc1cc(OC)c(OC)c(OC)c1` the “activity, negative = inhibition” value was inactive: 2.03%.
For `COc1ccccc1NC(=O)CCC(=O)Nc1nnc(C(F)(F)F)s1`, the “activity, negative = inhibition” value was inactive: 1.3%.
In the case of `COc1cccc(/C=N/n2c(-c3ccco3)nc3ccccc3c2=O)c1OC`, the Potency is reported as inconclusive: 8.91 µM [inhibitor, full curve].
In the case of `O=C(c1cc2c(s1)-c1ccccc1OC2)N1CCN(c2ccccn2)CC1`, the Potency is reported as inconclusive: 31.6 µM [inhibitor, partial curve].
For `Cc1ccc(-n2c(SCC3CNC(=O)O3)nnc2-c2ccccc2)cc1C` (stereo unspecified), the Potency was inconclusive: 20 µM [inhibitor, single point].
`COCCn1c(SCC(=O)/C=C2\N(C)c3ccccc3C2(C)C)nnc1-c1ccncc1` was tested, and the “activity, negative = inhibition” value was inactive: 1.96%.
`NC(=O)c1sc2cc(C(F)(F)F)cnc2c1-c1ccccc1` was tested, and the “activity, negative = inhibition” value was inactive: 4.22%.
With `O=C(CCc1ccccc1)NC(=S)NCc1ccco1` the Potency was inconclusive: 31.6 µM [inhibitor, single point].
In the case of `COc1ccc(N=Cc2nc(-c3ccco3)oc2O)cc1`, the Potency is reported as inconclusive: 22.4 µM [inhibitor, single point].
With `CN(C)C(=O)n1nnnc1Cc1ccc(-c2ccccc2)cc1` the Potency was active: 1 µM.
With `Cc1ccccc1C(=O)NC(=S)Nc1ccccc1C(=O)O` the Potency was inconclusive: 35.5 µM [inhibitor, single point].
In the case of `CN1C(=O)CC(Sc2ccccc2C(=O)O)C1=O` (stereo unspecified), the “activity, negative = inhibition” value is reported as inactive: -15.2%.
For `O=C(Nc1ccccc1Sc1ccccc1)c1ccc(F)cc1`, the Potency was inconclusive: 0.282 µM [inhibitor, full curve, poor fit].
With `CCc1ccc2c(c1)cc(CN(C(=S)Nc1ccc(Cl)cc1)C1CC1)c1nnnn12` the Potency was inconclusive: 39.8 µM [inhibitor, single point].
In the case of `CC(=O)c1cccc(OCCN2C(=O)NC(C)(C)C2=O)c1`, the Potency is reported as inconclusive: 35.5 µM [inhibitor, single point].
In the case of `CCOC(=O)C1CCN(S(=O)(=O)c2cccc(-c3cn4cccnc4n3)c2)CC1`, the Potency is reported as inconclusive: 31.6 µM [inhibitor, partial curve].
In the case of `Cc1ccc2c(c1)c1c(n2C)C(C(N)=O)CCC1` (stereo unspecified), the “activity, negative = inhibition” value is reported as inactive: -0.202%.
With `COc1ccccc1-n1c(-c2ccc(NS(C)(=O)=O)cc2)n[nH]c1=S` the Potency was inconclusive: 31.6 µM [inhibitor, partial curve].
With `COc1cc2c(cc1OC)CN(C(=O)c1cc(=O)c3ccccc3o1)CC2` the Potency was inconclusive: 35.5 µM [inhibitor, partial curve, poor fit].
With `Cc1ccc(CNC(=O)Cn2cc(C(F)(F)F)ccc2=O)cc1` the “activity, negative = inhibition” value was inactive: -4.16%.
With `O=C(Cn1nnc(-c2ccccc2)n1)N/N=C/c1cc([N+](=O)[O-])c(Cl)cc1Cl` the “activity, negative = inhibition” value was inactive: 16.6%.
